Assay results as given in the antibiotic and cytotoxicity screens of Wong et al. (2023).
Some of the results follow.

Tested on: HepG2
Assay: cytotoxicity call (relative viability < 0.9)
Conditions: 10 µM

Structure (SMILES)	cytotoxicity call
C[C@H]1CN([C@@H](C)CO)C(=O)c2cc(NS(C)(=O)=O)ccc2O[C@@H]1CN(C)C(=O)NC1CCCCC1	inactive
C[C@H](CO)N1C[C@H](C)[C@H](CN(C)Cc2ccc(C(F)(F)F)cc2)Oc2ccc(NC(=O)Cc3cn(C)c4ccccc34)cc2C1=O	inactive
Cc1ccccc1S(=O)(=O)N1C[C@@H](O)COC[C@H]2O[C@H](CC(=O)NCc3ccc(Cl)c(Cl)c3)CC[C@@H]21	inactive
CC1OC(OC2C(O)CC(OC3C(O)CC(OC4CCC5(C)C(CCC6C5CC(O)C5(C)C(C7=CC(=O)OC7)CCC65O)C4)OC3C)OC2C)CC(O)C1O (configuration not stated)	active
C[C@@H]1CN([C@@H](C)CO)C(=O)Cc2cc(NC(=O)Nc3cccc4ccccc34)ccc2O[C@H]1CN(C)S(=O)(=O)c1ccc(F)cc1	inactive
C[C@H](CO)N1C[C@H](C)[C@H](CN(C)Cc2ccc(-c3ccccc3)cc2)Oc2ccc(NS(=O)(=O)c3ccc(F)cc3)cc2C1=O	inactive
CC(=O)N1[C@@H](CO)[C@@H](c2ccccc2)C12CN(C(=O)CN1CCOCC1)C2	inactive
C[C@H](CO)N1C[C@H](C)[C@@H](CN(C)Cc2ccc(Oc3ccccc3)cc2)Oc2ccc(NC(=O)NC3CCCCC3)cc2C1=O	active
CS(=O)(=O)N(CCC#N)Cc1ccco1	inactive
Cc1noc(C)c1NC(=O)Nc1ccc2c(c1)CC(=O)N([C@H](C)CO)C[C@H](C)[C@H](CN(C)S(=O)(=O)c1cccs1)O2	inactive
CCCc1cc(=O)oc2cc3occ(-c4ccccc4)c3cc12	inactive
C[C@@H]1CN([C@H](C)CO)C(=O)c2cc(NC(=O)C3CCCCC3)ccc2O[C@@H]1CN(C)Cc1ccc(Oc2ccccc2)cc1	active
